These are yes or no findings as the source states them, for the method shown. Some entries that bind do so weakly or less than the wild type.

The record followed here is publication PMC4110037.

Experiment [1] concerns the target T1, Pto kinase (Solanum pimpinellifolium) (UniProt Q40234).
T1 sequence: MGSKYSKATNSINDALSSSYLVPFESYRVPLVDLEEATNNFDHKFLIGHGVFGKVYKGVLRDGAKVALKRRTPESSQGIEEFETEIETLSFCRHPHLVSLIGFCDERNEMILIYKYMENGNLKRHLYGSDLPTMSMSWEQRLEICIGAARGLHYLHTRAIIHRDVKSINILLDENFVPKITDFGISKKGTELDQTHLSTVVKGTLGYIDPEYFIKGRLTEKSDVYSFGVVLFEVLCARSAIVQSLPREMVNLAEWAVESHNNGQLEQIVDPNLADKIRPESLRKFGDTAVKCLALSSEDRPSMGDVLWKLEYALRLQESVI
Nature of the experiment: two-hybrid; LexA yeast two-hybrid: Pto or Fen in the bait vector pEG202, AvrPtoB forms in the prey vector pJG4-5, S. cerevisiae EGY48 with reporter plasmid pSH18-34; X-Gal staining on raffinose/galactose plates monitored for 24 to 48 hrs.

Experiment [2] has as its target T2, Fen kinase (Solanum pimpinellifolium) (UniProt Q40126).
T2 sequence: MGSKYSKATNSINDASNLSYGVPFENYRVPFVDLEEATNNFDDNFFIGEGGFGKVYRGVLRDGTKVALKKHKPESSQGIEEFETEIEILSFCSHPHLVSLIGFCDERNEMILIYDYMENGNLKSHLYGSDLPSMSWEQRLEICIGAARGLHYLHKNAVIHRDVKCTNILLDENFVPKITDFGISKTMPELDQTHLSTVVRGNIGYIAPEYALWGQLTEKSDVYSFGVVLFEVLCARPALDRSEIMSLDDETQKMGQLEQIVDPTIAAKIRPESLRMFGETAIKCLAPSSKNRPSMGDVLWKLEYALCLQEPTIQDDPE
The description is as above.

Consider AvrPtoB (from UniProt Q8RSY1 1-553), for which the binding entry in experiment [1] is “binds”.
On the same count and under the same terms, under “AvrPtoB(F173A/E3-LOF) (from UniProt Q8RSY1 1-553)” stands “binds”.
The same measure, in the same setting: under “AvrPtoB(F173A/G325A/E3-LOF) (from UniProt Q8RSY1 1-553)” stands “no binding”.
For the substance “AvrPtoB(F479A/F525A/P533A) (from UniProt Q8RSY1 1-553)”, the binding result in experiment [2] and in experiment [1] was “binds” throughout.
With “AvrPtoB(G325A/E3-LOF) (from UniProt Q8RSY1 1-553)”, the binding entry is on record as “no binding” in experiment [2] and “binds” in experiment [1].
Regarding “AvrPtoB(T450A) (from UniProt Q8RSY1 1-553)”, the binding entry in experiment [1] is reported as “binds”.
For “AvrPtoB(T450D) (from UniProt Q8RSY1 1-553)”, the values for the binding entry in experiment [2] and in experiment [1] were “no binding” and “binds”, respectively.
Taken in the same sequence, the figures for “AvrPtoB_(1–307) (from UniProt Q8RSY1 1-307) (domain or fragment)” were “no binding” and “binds”.
For the substance “AvrPtoB_(1–307)(F173A) (from UniProt Q8RSY1 1-307) (domain or fragment)”, in experiment [1], the binding entry is reported as “no binding”.
In the case of “AvrPtoB_(1–387) (from UniProt Q8RSY1 1-387) (domain or fragment)”, the binding entry in experiment [2] and in experiment [1] was “binds” throughout.
With “AvrPtoB_(1–387)(F173A) (from UniProt Q8RSY1 1-387) (domain or fragment)”, in experiment [1], the binding result is recorded as “binds”.
The same measure, in the same setting: under “AvrPtoB_(1–387)(F173A/G325A) (from UniProt Q8RSY1 1-387) (domain or fragment)” stands “no binding”.
Turning to “AvrPtoB_(1–387)(G325A) (from UniProt Q8RSY1 1-387) (domain or fragment)”, the binding entry is on record as “no binding” in experiment [2] and “binds” in experiment [1].
For “PID:E3-LOF (from UniProt Q8RSY1 121-200; Q8RSY1 388-533)”, the binding entry in experiment [1] was “binds”.
